From patent US20170073391A1 (R PHARM OVERSEAS, published 2017) come the findings set out here.

In assay [1] the target is T1, recombinant soluble human Receptor Activator of Nuclear Factor Kappa-B Ligand (rshRANKL) (human, UniProt O14788 140-317, limits assumed).
T1 construct: also called rhsRANKL
T1 sequence (looked up): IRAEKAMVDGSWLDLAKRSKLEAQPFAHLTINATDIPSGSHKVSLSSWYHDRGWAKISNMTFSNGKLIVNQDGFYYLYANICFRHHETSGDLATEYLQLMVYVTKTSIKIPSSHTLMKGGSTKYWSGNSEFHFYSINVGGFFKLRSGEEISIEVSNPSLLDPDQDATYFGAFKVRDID
Put plainly: SPR (Biacore X100), hOPG-hIgG1-Fc captured on Protein A, rshRANKL as analyte, 1:1 Langmuir fit.

Assay [2] has as its target T1, recombinant soluble human Receptor …. Put plainly: SPR (Biacore X100), KD compared under substantially similar conditions. (In general: In SPR one partner is held on a chip, and binding of the other changes the refractive index at the surface.)

B1: hOPG-hIgG1-Fc polypeptide of SEQ ID NO. 1 (Fc fusion)
chain: ETFPPKYLHYDEETSHQLLCDKCPPGTYLKQHCTAKWKTVCAPCPDHYYTDSWHTSDECLYCSPVCKELQYVKQECNRTHNRVCECKEGRYLEIEFCLKHRSCPPGFGVVQAGTPERNTVCKRCPDGFFSNETSSKAPCRKHTNCSVFGLLLTQKGNATHDNICSGNSESTQKCGIDVTLCEEAFFRFAVPTKF[letters of human IgG1 Fc left out]
notes: 1 itself; 1 begins with OPG residues 1-215, so residues 1-21 are left out here
In the case of B1, in assay [1], the dissociation constant (Kd) amounted to 0.485 pM, the koff is 6.54e-06 s⁻¹ and the association rate constant (kon) was found to be 1.35e+07 M⁻¹ s⁻¹. For the same molecule, the “fold higher affinity compared to Denosumab” value in assay [2] was approximately 50 fold.

Broadly, the Kd is the concentration at which binding is half-saturated. What is called koff is the rate constant with which the complex falls apart. The kon is the second-order rate constant of association.
